Molecules are shown by their SMILES. Screen size: about 45,000 compounds; about 200 (0.44%) were called active. Inconclusive results (about 7%) are left out. The call rests on the fitted dose curve; in most records, active means well fitted activation curve with a large enough effect; inconclusive means small, poorly fitted or top-dose-only effect; inactive means no such curve, though single readings can be large or run the other way. The list shows a part of the results.

Data on 54 molecules can be found in PubChem BioAssay AID1347073 (National Center for Advancing Translational Sciences (NCATS), 2019).

The assay can be described thus: qHTS of TDP-43 Inhibitors: NCGC Sytravon Library Screen. Further: 0% is about no effect; nearly all actives have a fitted effect of over 55% in size. The conditions noted are these: yeast TDP-43 toxicity rescue, BacTiter-Glo growth, 24 h; series mostly up to 46.1 µM; growth rescue (activation): at the top concentration. Summed up:
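TDP-43-expressing yeast, pregrown in raffinose, seeded at OD600 0.02 in galactose medium with compound for 24 hr at 30 deg C. Growth read by BacTiter-Glo luminescence, so rescue of toxicity appears as activation.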
A general note: Quantitative high-throughput screening tests each substance at several concentrations.
Take `CCn1c(C(=O)NCc2ccccc2Cl)cc2sc(Cl)cc21`: the “growth rescue (activation)” value is inactive: 5.59%.

As for `CCOc1cc(CNCc2cccnc2)ccc1OCC(=O)NC(C)(C)C`, the “growth rescue (activation)” value is inactive: -10.6%. The same measure, in the same setting: the figure for `CC(c1ccon1)N(C)Cc1cn(Cc2ccccc2)nc1-c1ccc2c(c1)OCO2` (centres undefined) is inactive: -19.4%.

On to `CCn1c(SCc2nc3cc(OC)c(OC)cc3c(=O)[nH]2)nc2ccccc21`, for which the “growth rescue (activation)” value was inactive: 8.35%.

With `CC1CCCCC12NC(=O)N(CC(=O)OCc1c(F)cccc1Cl)C2=O` (centres undefined), the “growth rescue (activation)” value is inactive: 21.8%. Consider `Nc1ccc(S(=O)(=O)NC2(C(F)(F)F)NC(=O)N(c3ccccc3Cl)C2=O)cc1` (centres undefined), for which the “growth rescue (activation)” value was inactive: 2.2%.

Take `O=C(NCCOc1ccccc1)[C@@H]1CCCN1C(=O)c1cccs1`: the “growth rescue (activation)” value is inactive: -2.74%. The same measure, in the same setting: the figure for `O=C(O)/C=C\C(=O)Nc1ccc(Oc2ccc(Br)cc2)cc1` is inactive: 7.88%; for `CCOc1ccc2ccccc2c1/C=N/NC(=O)CNC(=O)c1ccccc1O` it is inactive: 10.5%. Take `CN(C)/N=C/c1ccc(Sc2ccccc2[N+](=O)[O-])o1`: the “growth rescue (activation)” value is inactive: 5.1%. On to `CS(=O)(=O)Nc1ccc(C(=O)NCCc2ccccc2)cc1`, for which the “growth rescue (activation)” value is inactive: -10.8%.

In the case of `Cc1ccccc1CN(C)CC(=O)Nc1c(C)cccc1C(C)C`, the “growth rescue (activation)” value was inactive: 1.69%. Turning to `CCn1cc([C@@H]2C[C@H]3CN(Cc4cccc(Cl)c4)C(=O)[C@]34CCCN24)c(C)n1`, the “growth rescue (activation)” value was inactive: -7.18%. On the same count and under the same terms, the same measure for `Cn1cc(Cl)c(C(=O)OCC(=O)Nc2cccc(Cl)c2)n1`: inactive: 0.0281%; for `COc1cc(OC)c(OC)cc1/C=C1\Oc2cc(OS(C)(=O)=O)ccc2C1=O`: inactive: -5.36%; for `CC(=O)c1ccc(C(=O)N2CCC(CO)(Cc3cccc(C(F)(F)F)c3)CC2)cc1`: inactive: 13.8%. As for `O=C(N/C(=C/c1ccco1)C(=O)N1CCCCCC1)c1ccccc1`, the “growth rescue (activation)” value was inactive: 5.16%.

Regarding `O=C(C[n+]1cccc2ccccc21)c1ccccc1`, the “growth rescue (activation)” value is inactive: 19.8%. On the same count and under the same terms, the figure for `O=C(CC(=O)NCc1ccc(Cl)cc1)NCc1ccc(Cl)cc1` is inactive: 15.4%; for `CN(CC1CCOCC1)C(=O)CC1C(=O)NCCN1C/C=C/c1ccccc1` (centres undefined) it is inactive: -1.55%; for `Cc1ccc(NC(=O)CNCc2ccccc2)cc1Br` it is inactive: -9.5%. Consider `CCn1c(SCCN2CCCCC2)nc2c1c(=O)n(C)c(=O)n2C`, for which the “growth rescue (activation)” value is inactive: 0.763%. As to `CSc1nnc(CNS(=O)(=O)c2ccc(F)cc2)n1C`, the “growth rescue (activation)” value was inactive: 25.9%. Regarding `O=C(COC(=O)c1cc(=O)[nH]c2ccccc12)NC1CCCC1`, the “growth rescue (activation)” value was inactive: -3.66%. Turning to `CC1(C(=O)NS(=O)(=O)c2cccc(C#N)c2)CCN1C(=O)c1ccccc1` (centres undefined), the “growth rescue (activation)” value is inactive: 13.7%. Consider `CCOC(=O)C1CCN(c2ccc(C(=O)O)cc2[N+](=O)[O-])CC1`, for which the “growth rescue (activation)” value is inactive: 18.7%. As for `Cc1ccc2cc3cc(C(=O)NCCC(C)C)oc3nc2c1`, the “growth rescue (activation)” value was inactive: 21.4%.

Turning to `O=C(NC(=S)Nc1ccccc1C(=O)O)c1ccc2ccccc2c1`, the “growth rescue (activation)” value is inactive: 26.5%. Consider `COc1ccc(NC(=O)CN2C(=O)NC3(CCCC3)C2=O)cc1OC`, for which the “growth rescue (activation)” value is inactive: -13.8%. For the molecule `COc1ccccc1-c1ccc2c(c1)C(C)(Cc1ccc(Cl)c(Cl)c1)C(=O)N2` (centres undefined), the “growth rescue (activation)” value was inactive: -15.8%.

For `CSc1nc(Oc2ccc(F)cc2)c2ccccc2n1`, the “growth rescue (activation)” value was inactive: 15.3%. As to `O=C(Nc1ccc(Cl)c(S(=O)(=O)N2CCOCC2)c1)c1cc2ccccc2oc1=O`, the “growth rescue (activation)” value was inactive: 17.4%. `CCCn1c(SCC(=O)N2c3ccccc3Sc3ccccc32)nc2ccccc21`: the “growth rescue (activation)” value was inactive: 22.7%. `CSc1cccc(NC(=S)N(CCN(C)C)C(C)c2ccccn2)c1` (centres undefined): the “growth rescue (activation)” value is inactive: -0.447%. Consider `NC(c1csc(NC(=O)Nc2ccccc2Oc2ccccc2)n1)c1ccccc1Cl` (centres undefined), for which the “growth rescue (activation)” value is inactive: 15.7%. Consider `O=C(Nc1ccccc1F)C1CCN(S(=O)(=O)c2cccc3nonc23)CC1`, for which the “growth rescue (activation)” value was inactive: 7.75%. For `COCCn1c(Cc2cccn2C)nnc1SCC(=O)Nc1nccs1`, the “growth rescue (activation)” value was inactive: -0.404%.

For `Cc1ccc(C(=O)COC(=O)CCC(=O)Nc2ccccc2Cl)cc1[N+](=O)[O-]`, the “growth rescue (activation)” value is inactive: 10.4%. On to `CC(=O)c1cccc(NC(=O)CN2C(=O)NC(C)(C)C2=O)c1`, for which the “growth rescue (activation)” value was inactive: 20.1%. On to `Cc1ccc(OC(C)C(=O)N2CC(=O)Nc3ccccc32)c(C)c1` (centres undefined), for which the “growth rescue (activation)” value was inactive: -0.412%. Turning to `Cc1ccccc1C(=O)c1cccn1CC(=O)NCc1ccc(Cl)cc1`, the Potency entry is “inactive”.

With `COc1ccc(S(=O)(=O)N2CCCCC2)cc1NC(=O)CCNC(=O)c1ccc(Cl)cc1`, the “growth rescue (activation)” value is inactive: 12.5%.

Take `COc1ccc(Cl)cc1-n1c(C)cc(C(=O)OCC(=O)N2CC(=O)Nc3ccccc32)c1C`: the “growth rescue (activation)” value was inactive: 2.37%.

For the molecule `O=C(OCC(=O)N1CCC(Cc2ccccc2)CC1)c1ccccc1O`, the “growth rescue (activation)” value is inactive: -3.83%.

Regarding `O=C(Nc1ccc2c(c1)OCO2)N1CCC(CO)(CC2CCCCO2)CC1` (centres undefined), the “growth rescue (activation)” value was inactive: 6.25%. `CC(=O)Nc1ccc(NC(=O)COc2cccc3c2OC(C)(C)C3)cc1`: the “growth rescue (activation)” value was inactive: 4.69%. Still for that read-out and setting: the same measure for `COc1ccc(-n2c(SCC(=O)NCc3cccs3)nnc2-c2ccoc2C)cc1`: inactive: 8.52%. Take `O=C(CN1CCCc2ccccc21)Nc1cccc(S(=O)(=O)N2CCOCC2)c1`: the “growth rescue (activation)” value is inactive: 12.2%. For the molecule `COc1ccc(CCc2nnc(CCC(=O)NCc3cc(C(C)C)no3)o2)cc1`, the “growth rescue (activation)” value was inactive: 6.41%.

In the case of `O=C(O)C(Cc1c[nH]c2ccccc12)NS(=O)(=O)c1ccc(Br)cc1` (centres undefined), the “growth rescue (activation)” value is inactive: 11.4%. Still for that read-out and setting: the figure for `Cc1cc(NC(=O)CCC(=O)N(CC(=O)NC2CCCC2)c2ccc(F)c(Cl)c2)no1` is inactive: -5.03%; for `Cc1ccc(N(CC(=O)NC(C)(C)C)C(=O)CNC(=O)c2cccs2)c(C)c1` it is inactive: 0.551%. As to `Cc1c(Br)c(C(F)(F)F)nn1CC(=O)N(C)C1CCCCC1`, the “growth rescue (activation)” value is inactive: 9.06%. As for `O=C(O)CC(C(=O)Nc1ccc(F)cc1)C1CCCO1` (centres undefined), the “growth rescue (activation)” value is inactive: -19.4%.
